Experimental findings from ChEMBL document CHEMBL4888484, “Replenishing the malaria drug discovery pipeline: Screening and hit evaluation of the MMV Hit Generation Library 1 (HGL1) against asexual blood stage Plasmodium falciparum ,using a nano luciferase reporter read-out” (2022) are described below.

Among all 150,000 compounds or so, about 540 (0.36%) showed an effect of 50% or more. The list shows a part of the results.

This experiment deals with Plasmodium falciparum. The experiment is described as follows: Primary screen in NF54 nanoGlo assay, in single point, at 2uM, 72h; a lower Z score goes with more inhibition. Format: functional, Erythrocyte. As to conditions: timepoint 72 hour.
The % Inhibition is the relative decrease from the control value, in per cent. In the case of `Cc1ncoc1CNS(=O)(=O)C1Cc2ccccc2C1`, the “% Inhibition” value worked out at 5% and the Z score is -0.8.

For the compound `CCc1nc(Cn2cc([C@H](O)c3ccccc3)cn2)no1`, the “% Inhibition” value is on record as -15% and the Z score was determined as 2.38.

As for `FC(F)(F)c1ccnc(NC2CCN(CC3CC3)CC2)c1`, the “% Inhibition” value is on record as -5% and the Z score is 0.98.

Consider `CNS(=O)(=O)c1cc(-c2ccc(OC3CC3)cc2)ccc1C`, for which the “% Inhibition” value is listed as -17% and the Z score came to 2.38.

In the case of `CC1(C)CN(C(=O)c2cc3n(n2)CCCO3)c2ccc(Br)cc2O1`, the “% Inhibition” value was 5% and the Z score was -0.88.

For `O=C(NC1CC(c2cccc(Cl)c2)C1)C1=NN(CCO)C(=O)CC1` (stereo unspecified), the “% Inhibition” value is -8% and the Z score is listed as 1.34.

In the case of `COc1cccc(N2CCN(C(=O)c3ccc(C)nc3C3CCN(C(=O)c4c(F)cccc4F)CC3)CC2)c1`, the “% Inhibition” value is listed as -12% and the Z score is reported as 2.4.

`COc1ccc(N2C(=O)C3ON(c4ccccc4)C(c4ccncc4)C3C2=O)cc1` (stereo unspecified): the “% Inhibition” value was 1% and the Z score is listed as -0.15.

With `CC(C)(C(=O)NCc1ccc(S(C)(=O)=O)s1)C(F)(F)F`, the “% Inhibition” value is reported as 0% and the Z score worked out at 0.06.

In the case of `O=C(NCc1cc(F)c(Cl)cc1F)[C@H]1C[C@@H]1C(F)(F)F`, the “% Inhibition” value is given as -10% and the Z score was 1.21.

As for `CCN1N=C(C(=O)Nc2ccc(NC(=O)C(C)C)cc2)CC1=O`, the “% Inhibition” value amounted to 4% and the Z score is given as -0.71.

On to `Cc1cc(OCc2ccc(C(=O)NC3CCCCCC3)o2)ccc1Cl`, for which the “% Inhibition” value is listed as 6% and the Z score is recorded as -0.86.

For the compound `CC(NC(=O)C1CCC(=O)NC1)c1nnc2n1CCCCC2` (stereo unspecified), the “% Inhibition” value was -8% and the Z score amounted to 1.11.

With `COC(=O)c1n[nH]cc1-c1cc(-c2ccc(O)cc2C)nc(N)c1C#N`, the “% Inhibition” value turned out to be 12% and the Z score was -1.59.

With `CNC(=NC[C@H](C)N(C)c1ccccc1)NC`, the “% Inhibition” value is listed as -13% and the Z score is recorded as 2.4.

As to `Cc1cc(NC(=O)C2CC(c3cccs3)NS(=O)(=O)N2C)no1` (stereo unspecified), the “% Inhibition” value is recorded as -7% and the Z score is given as 0.76.

For `COC[C@H](C)NC(=O)CN(C)C1CCC(C)CC1` (stereo partly specified), the “% Inhibition” value is on record as -9% and the Z score is 0.94.

In the case of `COC(=O)[C@]1(F)CCN(Cc2cnc(CC(C)C)s2)C1`, the “% Inhibition” value is -9% and the Z score worked out at 0.82.

Regarding `O=C(N[C@@H](N1CCCCC1)C(Cl)(Cl)Cl)c1cccnc1`, the “% Inhibition” value is listed as 40% and the Z score was -5.14.

In the case of `Cc1cc(C)c(C(=O)N2CCS(=O)(=O)C3CCCC32)o1` (stereo unspecified), the “% Inhibition” value came to 12% and the Z score is given as -1.45.

For the compound `O=C(NCC(F)(F)F)N1CCOC(C2CCCO2)C1` (stereo unspecified), the “% Inhibition” value was 0% and the Z score stood at 0.05.

In the case of `O=C(N[C@H]1CS(=O)(=O)Cc2ccccc21)c1cnn(CCF)c1`, the “% Inhibition” value was -6% and the Z score is 0.86.

Regarding `Cc1ncc(Cl)c(C(=O)Nc2nc(-c3cccc(C#N)c3)cs2)n1`, the “% Inhibition” value is given as -7% and the Z score is 1.07.

As for `COCC(=O)N1CC[C@H]2CN(Cc3cccc(F)c3F)C[C@@]2(CO)C1`, the “% Inhibition” value is listed as -13% and the Z score came out at 1.78.

For the compound `COc1cccc(CC(=O)Nc2ccc(Cn3cnc(C(=O)Nc4cc(C)ccc4OC)c3)cc2)c1`, the “% Inhibition” value is listed as -16% and the Z score is reported as 1.88.

Turning to `Cc1ccc2[nH]c(C3CN(C(=O)NCCCc4ccccc4)C3)nc2c1`, the “% Inhibition” value is given as -12% and the Z score is listed as 2.33.

Take `Cc1ccc([C@H](C)NC(=O)C(=O)c2cccnc2)nc1`: the “% Inhibition” value is on record as -9% and the Z score came to 1.52.

As to `O=C(NC1CC1)C1CN(C(=O)c2c[nH]c3ccccc23)C1`, the “% Inhibition” value is -10% and the Z score worked out at 1.17.

Turning to `COCCNCCCOc1ccc(Br)cc1C`, the “% Inhibition” value is on record as -8% and the Z score was 1.02.

As for `COc1ccc(NC(=O)[C@@H]2CC(=O)Nc3nc(N4CCCCC4)nc(N)c32)cc1`, the “% Inhibition” value is -13% and the Z score was found to be 2.43.

As to `CCc1ccccc1CN1C[C@@H](CN2CCCCC2)[C@@H](CO)C1`, the “% Inhibition” value is given as -1% and the Z score amounted to 0.13.

With `Cc1noc(C)c1CN(C)C(=O)c1cc(CC(C)C)no1`, the “% Inhibition” value was -5% and the Z score turned out to be 0.58.

In the case of `CCN1CCN(C(=O)c2ccccc2N2CCC(NC(=O)c3cccc(Br)c3)CC2)CC1`, the “% Inhibition” value was 48% and the Z score was -8.05.

For `COc1ccc(CN2CCN(Cc3cccn3-c3cccnc3)C[C@@H]2CCO)cc1C`, the “% Inhibition” value was 13% and the Z score is recorded as -1.49.

For `O=C(Nc1cnn(-c2ccccn2)c1)N[C@H]1CCc2ncnn2C1`, the “% Inhibition” value is -1% and the Z score is 0.21.

As to `CC[C@]1(C)NC(=O)N(CCCNc2cccc(C)n2)C1=O`, the “% Inhibition” value is on record as -13% and the Z score is given as 1.35.

`O=C(C1CCN(c2nccs2)CC1)N1CCC(c2nc3ccccc3o2)CC1`: the “% Inhibition” value is given as -24% and the Z score turned out to be 2.96.

For the compound `COCCOC(=O)NC[C@@H]1C[C@H](F)CN1C(=O)c1sc(C)nc1C`, the “% Inhibition” value was -1% and the Z score is 0.13.

Turning to `O=C(O)c1ccc(CN2C[C@@H](F)[C@@H](OCc3nc4ncccc4[nH]3)C2)cc1`, the “% Inhibition” value was found to be 30% and the Z score was -3.39.

Regarding `CN(CCCn1cccn1)Cc1nc(C(F)(F)F)no1`, the “% Inhibition” value was -9% and the Z score is 0.87.

Take `COc1cc(-c2cc(C(=O)Nc3ccc(Cl)c(S(=O)(=O)Nc4cccc(Cl)c4)c3)c3ccccc3n2)cc(OC)c1OC`: the “% Inhibition” value was 8% and the Z score was -1.65.

Consider `O=C(c1ccc2ccccc2c1)[C@@H]1[C@@H]2CCCN2[C@]2(C(=O)Nc3ccc(Cl)cc32)[C@@]12C(=O)Nc1ccccc12`, for which the “% Inhibition” value is 35% and the Z score was -3.94.

Turning to `Cn1cccc1-c1nc2cc(N)ccc2[nH]1`, the “% Inhibition” value is recorded as -3% and the Z score was 0.34.

As for `COCCN(Cc1cncs1)C(=O)C1CCOC1C` (stereo unspecified), the “% Inhibition” value is -10% and the Z score is 1.82.

As for `CN(CC(=O)Nc1ccc(F)cc1)C(=O)COC(=O)CC1CCCC1`, the “% Inhibition” value was -21% and the Z score was found to be 3.06.

`C[C@H](NC(=O)CS(C)(=O)=O)c1ccc(F)cc1F`: the “% Inhibition” value is reported as -4% and the Z score was 0.56.

For `O=C(Nc1nccs1)c1ccc2c(c1)C(=O)N(C[C@H]1CCCO1)C2=O`, the “% Inhibition” value was -5% and the Z score amounted to 0.89.

Turning to `O=C(C1CCCC1)N(CC1CCN(C2Cc3ccccc3C2)CC1)C[C@H]1CCCO1`, the “% Inhibition” value is recorded as -10% and the Z score came out at 0.87.

With `O=S(=O)(c1ccc(Br)c(Cl)c1)N(C[C@H](O)c1ccccc1)C1CC1`, the “% Inhibition” value is recorded as -9% and the Z score is 1.22.

For the compound `COC(=O)C1CCCCCC1NC1CCN(C)C1=O` (stereo unspecified), the “% Inhibition” value is -9% and the Z score was 1.

Turning to `COc1ccnc(N2CCN(S(=O)(=O)Cc3ccccc3)CC2)c1`, the “% Inhibition” value is listed as -3% and the Z score stood at 0.3.

For the compound `COc1ccc(-c2noc(-c3ccc(N4CCN(c5ccccc5OC)CC4)nc3)n2)cc1`, the “% Inhibition” value is -19% and the Z score is on record as 2.13.

As to `O=C(CCc1nc(-c2cc3ccccc3nc2O)no1)NCc1ccc(Cl)cc1`, the “% Inhibition” value was -11% and the Z score is reported as 2.08.
